# Publication PMC4336329 (PLoS ONE, 2015)
# The campaign covered roughly 310,000 compounds. About 2,200 (0.71%) showed an effect of 50% or more. Effects have a minus sign here. This is one part of the list.
# Molecular target: human ether-à-go-go-related gene (hERG) potassium channel (human, UniProt Q12809)
# Test: primary screen, population patch clamp on CHO cells stably expressing hERG
# Sequence of human ether-à-go-go-related gene (hERG) potassium channel (Q12809 whole entry, looked up): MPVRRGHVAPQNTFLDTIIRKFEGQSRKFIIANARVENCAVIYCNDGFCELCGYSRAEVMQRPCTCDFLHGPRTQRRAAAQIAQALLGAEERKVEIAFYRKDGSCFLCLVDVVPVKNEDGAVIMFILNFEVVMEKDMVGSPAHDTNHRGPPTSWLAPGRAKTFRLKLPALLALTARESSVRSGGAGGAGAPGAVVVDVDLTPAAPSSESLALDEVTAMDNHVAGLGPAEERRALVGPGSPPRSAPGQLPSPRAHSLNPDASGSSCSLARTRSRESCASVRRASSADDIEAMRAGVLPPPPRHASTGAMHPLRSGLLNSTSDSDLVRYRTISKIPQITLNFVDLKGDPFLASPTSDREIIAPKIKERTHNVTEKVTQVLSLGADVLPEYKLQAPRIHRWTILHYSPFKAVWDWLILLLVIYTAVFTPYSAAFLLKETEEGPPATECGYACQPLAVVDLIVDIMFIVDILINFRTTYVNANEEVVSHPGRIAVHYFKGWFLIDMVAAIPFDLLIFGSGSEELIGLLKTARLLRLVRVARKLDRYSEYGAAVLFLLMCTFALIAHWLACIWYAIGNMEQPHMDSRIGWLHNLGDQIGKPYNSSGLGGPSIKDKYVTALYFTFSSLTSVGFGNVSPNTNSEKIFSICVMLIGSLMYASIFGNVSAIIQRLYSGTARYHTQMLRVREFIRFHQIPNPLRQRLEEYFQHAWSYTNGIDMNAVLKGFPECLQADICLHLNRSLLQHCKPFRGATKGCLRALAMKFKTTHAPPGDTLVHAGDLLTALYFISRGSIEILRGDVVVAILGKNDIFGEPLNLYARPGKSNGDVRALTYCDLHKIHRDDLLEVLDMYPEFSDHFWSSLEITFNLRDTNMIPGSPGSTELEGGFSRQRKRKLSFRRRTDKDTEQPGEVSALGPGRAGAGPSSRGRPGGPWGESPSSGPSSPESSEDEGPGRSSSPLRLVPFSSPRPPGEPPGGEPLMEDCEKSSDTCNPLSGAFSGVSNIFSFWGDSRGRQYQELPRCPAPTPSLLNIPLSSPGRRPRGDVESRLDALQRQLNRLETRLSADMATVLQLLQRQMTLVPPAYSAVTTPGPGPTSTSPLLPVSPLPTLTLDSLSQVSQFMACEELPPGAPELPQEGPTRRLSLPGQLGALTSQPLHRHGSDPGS
row,Structure (SMILES),"hERG current change (%, negative = inhibition) at 1uM [%]"
1,COc1ccccc1N(CC(=O)NCc1ccccc1)C(=O)CCC(=O)Nc1ccccn1,6.5
2,CC(=O)CN1C(=O)NC2(CCCc3ccccc32)C1=O (stereo not drawn),19.6
3,c1cnc(N2CCN(c3ccc4ccccc4n3)CC2)nc1,13.9
4,COc1ccc(CCN(C(=O)Cn2nnc3ccccc32)C(C(=O)NCC2CCCO2)c2ccncc2)cc1OC (stereo not drawn),20.4
5,CCOc1ccc(C(C(=O)NC2CCCCC2)N(CCOC)C(=O)c2snc(C(N)=O)c2N)cc1 (stereo not drawn),-13
6,Cc1ccc(S(=O)(=O)N2CCOCC2)cc1C(=O)OCC(=O)NC1CC1,0.895
7,Cc1ccc(S(=O)(=O)N(CC(=O)N(C)C)c2cccc([N+](=O)[O-])c2)cc1,18
8,CCn1c2ccccc2c2cc(C3N=C(N)Nc4nc5ccccc5n43)ccc21 (stereo not drawn),-1.68
9,CCN(CC)S(=O)(=O)c1ccc(OC(C)C)nc1,3.95
10,CCOC(=O)N/N=C/c1ccc(C)o1,5.21
11,Cc1nnc(NC(=O)CSc2nnc(-c3ccco3)o2)s1,11.6
12,CCOc1ncccc1C(=O)OCC(=O)Nc1ccc(S(=O)(=O)N2CCOCC2)cc1,9.61
13,COc1cc(/C=C/C(=O)Nc2cccnc2)cc(OC)c1OC,18.3
14,COc1ccc(-c2sc(Nc3ccc(F)c(F)c3F)nc2CCC(=O)NN)cc1,15.6
15,CC(=O)c1ccc(N(CC(=O)NC2CCCC2)C(=O)c2ccc(C)s2)cc1,5.54
16,CC(=O)c1ccc2c(c1)C1C=CCC1C(c1ccc(S(=O)(=O)N3CCOCC3)cc1)N2 (stereo not drawn),17.1
17,N#Cc1ccc(CSCC(=O)O)cc1,13.5
18,CC(=O)N1CCN(C(=O)c2ccc(S(=O)(=O)Nc3ccccc3Cl)cc2)CC1,9.42
19,OC[C@H]1OC(O)C[C@@H](O)[C@@H]1O (stereo partly drawn),9.68

row,Structure (SMILES),"hERG current change (%, negative = inhibition) at 1uM [%]"
1,CCCCCCOc1ccc(C(CC(N)=O)C(=O)O)cc1 (stereo not drawn),13.1
2,Cc1ccccc1N(CC(=O)NC1CCCCC1)C(=O)c1csnn1,16.1
3,COc1ccc2nc(SCc3ccccc3)nc(C)c2c1,10.3
4,O=C(O)c1ccc(S(=O)(=O)N2CCCc3ccccc32)cc1,3.23
5,N/C(=N\OC(=O)c1ccccc1Cl)c1cccnc1,-4.68
6,Cc1ccc(NC2=NC(c3ccc(F)cc3)n3c(nc(C)cc3=O)N2)cc1 (stereo not drawn),11.9
7,Cc1ccc(NS(=O)(=O)c2ccc(C(=O)N3CCC3)cc2)cc1,12.5
8,CCC(Oc1ccccc1)C(=O)Nc1ccccc1C(=O)N1CCN(C)CC1 (stereo not drawn),10.5
9,Cc1c(C)c(C)c2[nH]c(=S)[nH]c2c1C,18.6
10,Cc1ccc(C)c(Nc2c([N+](=O)[O-])ccc3nonc23)c1,17.4
11,COCCCn1c(CCC(=O)O)ccc1-c1ccc(F)cc1,8.47
12,O=C(/C=C/c1ccc([N+](=O)[O-])cc1)OCC(=O)N1c2ccccc2Sc2ccccc21,0.649
13,CCOc1ccc(NC(=O)CCC(=O)NNC(=O)c2ccco2)cc1,10.1
14,COC(=O)Cc1c(C)c2ccc(OCC(=O)N3CCOCC3)cc2oc1=O,16.5
15,Cc1nnsc1-c1nc2ccccc2[nH]1,6.79
16,COc1ccc2oc(=O)c(/C(C)=N/Nc3ccccc3)cc2c1,-1.96
17,Clc1ccccc1-c1nn2c(-c3ccncc3)nnc2s1,10.6
18,CCOCCCN(C(=O)Cn1nnc(-c2ccc(OC)c(OC)c2)n1)C(C(=O)NCC1CCCO1)c1ccc(F)cc1 (stereo not drawn),4.21
19,N#Cc1ccsc1NC(=O)CN1CCN(c2ccccc2O)CC1,7.72

row,Structure (SMILES),"hERG current change (%, negative = inhibition) at 1uM [%]"
1,CCN(CC)C(=O)CSc1nc(COc2ccccc2)nc2ccccc12,8.96
2,CCc1ccccc1N(CC(=O)NC(C)C)C(=O)CCC(=O)Nc1nccs1,7.2
3,Cc1nc2c(-c3ccc(F)cc3)c(C)nn2c(C)c1CCC(=O)NCc1ccco1,-0.188
4,Nc1nc(-c2cccnc2)nn1C(=O)Cc1ccccc1,5.78
5,Cn1cccc1Cc1nnc(SCC(=O)Nc2ccc3c(c2)OCCO3)n1CCc1ccccc1,7.16
6,CCn1ccc(C(=O)Nc2ccc(Cl)cn2)n1,-5.08
7,O=C(Nc1ccc(S(=O)(=O)Nc2nccs2)cc1)c1ccc(F)cc1,-8.07
8,COC(=O)c1cc(C)nc2c1C(=O)C(=O)C=C2N1CCOCC1,12.8
9,O=C(CSc1nc2ccsc2c(=O)n1Cc1ccccc1)NCc1ccco1,-17.3
10,O=C(Nc1sc2c(c1C(=O)O)CCCCC2)c1cccnc1,15.5
11,Cc1ccc(S(=O)(=O)/C(C#N)=C/c2c(N3CCCCC3)nc3ccccn3c2=O)cc1,-0.507
12,Cc1ccc(C(=O)N2CCCC2)cc1Br,10.4
13,Cc1ccc(NC(=O)C(=Cc2ccc(C(=O)O)cc2)C(=O)Nc2ccc(C)cc2C)c(C)c1,8.85
14,COc1cc(Cl)ccc1NC(=S)N(CCN1CCOCC1)C1CCN(C(C)=O)CC1,16.2
15,Cc1cc(S(=O)(=O)N2CCN(c3ccc(F)cc3)CC2)c(C)s1,4.8
16,S=c1[nH]cnc2scc(-c3ccccc3)c12,16.8
17,O=C(Nc1c(C(=O)C2CC2)oc2ccccc12)c1ccc(Cl)cc1,17.7
18,CCOc1cc(NC(=S)NCCCN2CCOCC2)c(OCC)cc1NC(=O)CC(C)C,19
19,Cc1cc2occ(CC(=O)N(C)CC(=O)Nc3ccc(F)cc3)c2cc1C,7.62
